Data published in the supplement of paper PMC3334620.
In all, about 33,000 sequences were measured (“E-score (-0.5 to 0.5)”: median about -0.053, highest 2% from about 0.37 on). The list shows a part of the results.

molecular target: Hap1 (UniProt P0CE41); assay: PBM E-score (8-mer binding enrichment) (E-score (-0.5 to 0.5)); higher = stronger / more preferred TF binding; most listed sequences are background and not binding sites; conditions: protein concentration: 200 nM; construct: GST-DNA-binding domain
Procedure, shortened: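 PURExpress in vitro transcription/translation supplied GST-tagged yeast transcription factors, either full-length or DNA-binding domain. Applied at about 100-200 nM to universal all-10-mer Agilent arrays double-stranded by primer extension, the bound protein was detected with fluorescent anti-GST. E-scores, modified Wilcoxon-Mann-Whitney statistics, were given by the Universal PBM Analysis Suite to ungapped eight-base words pooled with their reverse complements after masliner normalisation.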

Chain of UniProt P0CE41 (P0CE41 whole entry, the tested form may be a part): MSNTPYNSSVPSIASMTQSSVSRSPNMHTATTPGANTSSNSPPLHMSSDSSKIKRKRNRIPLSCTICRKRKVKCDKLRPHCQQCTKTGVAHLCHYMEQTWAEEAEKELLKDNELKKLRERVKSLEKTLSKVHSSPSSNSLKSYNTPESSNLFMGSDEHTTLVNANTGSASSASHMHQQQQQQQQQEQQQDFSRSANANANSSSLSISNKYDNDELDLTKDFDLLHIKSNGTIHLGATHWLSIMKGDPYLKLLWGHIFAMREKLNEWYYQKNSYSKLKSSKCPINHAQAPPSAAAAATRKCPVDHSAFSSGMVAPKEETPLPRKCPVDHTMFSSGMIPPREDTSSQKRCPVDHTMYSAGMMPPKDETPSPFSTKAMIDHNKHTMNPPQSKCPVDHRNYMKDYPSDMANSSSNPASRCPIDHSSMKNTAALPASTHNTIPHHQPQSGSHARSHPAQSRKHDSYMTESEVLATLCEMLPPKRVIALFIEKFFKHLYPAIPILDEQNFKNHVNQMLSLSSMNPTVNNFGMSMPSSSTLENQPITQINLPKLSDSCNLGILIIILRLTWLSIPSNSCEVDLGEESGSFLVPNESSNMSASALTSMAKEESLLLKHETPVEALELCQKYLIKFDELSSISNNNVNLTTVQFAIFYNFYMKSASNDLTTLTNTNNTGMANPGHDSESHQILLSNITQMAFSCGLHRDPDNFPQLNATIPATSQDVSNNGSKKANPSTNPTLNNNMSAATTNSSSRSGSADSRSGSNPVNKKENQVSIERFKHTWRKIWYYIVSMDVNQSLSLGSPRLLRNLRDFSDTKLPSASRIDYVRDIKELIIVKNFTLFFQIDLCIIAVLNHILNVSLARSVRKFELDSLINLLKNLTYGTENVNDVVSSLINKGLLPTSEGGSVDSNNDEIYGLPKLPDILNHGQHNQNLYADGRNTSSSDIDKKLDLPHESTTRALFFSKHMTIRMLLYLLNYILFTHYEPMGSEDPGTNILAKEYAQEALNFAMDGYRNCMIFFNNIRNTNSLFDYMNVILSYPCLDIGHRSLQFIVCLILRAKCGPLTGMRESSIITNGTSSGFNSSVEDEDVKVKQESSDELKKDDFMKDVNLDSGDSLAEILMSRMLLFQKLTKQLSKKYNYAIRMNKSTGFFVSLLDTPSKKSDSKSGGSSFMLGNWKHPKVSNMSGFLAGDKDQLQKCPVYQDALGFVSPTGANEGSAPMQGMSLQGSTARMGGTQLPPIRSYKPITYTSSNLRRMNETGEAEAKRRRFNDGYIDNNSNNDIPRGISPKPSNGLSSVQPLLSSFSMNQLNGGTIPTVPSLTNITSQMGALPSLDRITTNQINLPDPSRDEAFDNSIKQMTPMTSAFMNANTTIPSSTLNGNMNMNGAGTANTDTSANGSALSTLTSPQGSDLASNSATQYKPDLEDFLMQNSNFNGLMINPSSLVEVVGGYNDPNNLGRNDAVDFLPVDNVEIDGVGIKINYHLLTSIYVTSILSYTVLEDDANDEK

Sequence | PBM E-score
AATCACTG | 0.0378
ACACTCGG | 0.166
GCTGGGAC | -0.0902
ATACACTG | -0.179
GACATACC | 0.0629
AAGACACT | -0.128
AGGTCTGG | -0.0712
ATATACCC | 0.191
ATGAGAAT | -0.0856
CGCGAGCG | 0.104
CTATACAG | -0.201
CGCACGAG | 0.0104
AGTTCTTA | 0.0534
GGTTATAC | 0.126
CACGTCTA | -0.354
CGGTGCGC | 0.209
CACTGCTC | -0.104
AAGTGCCA | -0.112
GTTGTGGA | -0.0782
CGAAAAAC | 0.169
GGATGCAA | 0.0473
CCCGTCCC | 0.0345
CGAGCATA | -0.0516
GTAACTGA | -0.217
CAAGGCTC | -0.277

Sequence | PBM E-score
AAACTGGA | -0.0417
CATTACAA | -0.0558
TCAACCGA | 0.281
CAGTATGG | -0.175
CGATCGTC | 0.0887
CAGCGTAA | -0.0958
CCACAGTC | -0.356
AAACATAT | 0.174
ACCGTTCC | 0.156
CCGTGAGC | 0.102
AGAGACGA | -0.121
GCAGTGGC | -0.0499
CACCAGTA | -0.131
ATAGGGGC | 0.022
GAACTGGC | 0.171
AGACCACA | -0.115
CCGAATCG | 0.314
AGAAGAGC | -0.191
ACTACGCG | 0.117
AAACGTCG | 0.00491
AATTATGT | -0.108
AGTTGGAA | -0.129
AATCGGTA | 0.138
TCACCTAA | -0.0983
CATTCGCA | -0.217

Sequence | PBM E-score
GAATGTGA | 0.00267
GAGAGCTC | -0.0379
ATCAGTTC | -0.0966
AGATCCAG | -0.0735
AATCGCGT | 0.111
CTCCACTA | -0.00467
AGTCGCAA | -0.113
ATTAATAG | -0.099
CCCACCAA | -0.0745
AAGGCCCT | -0.0905
CTCAAAGC | -0.0476
ACCTTAGC | -0.165
CCGTAAGA | 0.269
CTAGAACA | 0.0858
TGAGCGAA | 0.0926
AACCCCGA | 0.456
GGGCCCCC | 0.0151
AGCGTACG | -0.104
AGGGTCAT | -0.156
AACGTCGT | 0.0706
CTGGCTGA | -0.14
GTGTAGTA | -0.0397
GACCTAAA | 0.163
AGGTAGGA | -0.196
GAAAGCAA | 0.127

Sequence | PBM E-score
ACACGATA | 0.174
TGGTCCAA | -0.044
CTAGGGAG | -0.232
GACCTCAA | -0.168
CAGCGAAG | -0.156
CCCACCGC | 0.153
ATCTCCTG | 0.178
CAACCGAG | 0.23
GCACGCCA | -0.113
ATTGTTCG | 0.215
GCTCGAAA | 0.0881
GCGGCGCC | 0.189
TCTCTAAA | 0.00367
CCATATGA | -0.173
ATAGAGGC | -0.302
ATTCAGGA | -0.0935
CTTCACGA | -0.341
AGTATCGC | 0.174
AAAGAACT | -0.114
GCATGGTA | -0.122
CTTTTCGA | -0.16
GTATCGAA | -0.152
CGAACAAA | 0.171
TATTCGCA | -0.094
AGTGCGAT | -0.0914

Sequence | PBM E-score
TCTGCCCA | -0.043
GGTTTTGA | 0.0654
GGTTCAGA | -0.127
AGAGGACC | -0.219
CTTTTGGA | -0.0089
TCCAGAGA | -0.228
CCGATACC | 0.377
TCAATAAA | -0.181
CCCTCACA | -0.259
ACCATCTC | -0.032
CCTCCTGC | -0.171
AACCTTGG | -0.067
CGCATTAA | 0.116
CTGGACAA | -0.215
CAACCCAG | -0.211
ACCACCGA | 0.288
CGACAAAA | 0.0973
CAGACCAC | -0.211
TACCGAGA | 0.209
AAGCCCCG | 0.285
AATTTGAC | -0.103
GACTCAGA | -0.173
TTGAGCAA | -0.259
GCAGAGAC | -0.201
GAGTACGC | -0.138

Sequence | PBM E-score
CGGTTAAA | 0.313
ACTGCATC | -0.168
GAGGTTGA | -0.139
ATTATAAA | 0.0229
CCTAGCGA | -0.312
CGATGATC | 0.0483
ATGTCACG | -0.0431
ACTCGCGG | 0.0324
AGGGAGGC | -0.108
AAGACGAG | -0.116
GAGGCAAA | 0.0536
AGCGTTGA | -0.0757
GACGGTGC | 0.0455
GTGGCCAC | 0.203
ATGAGGTG | -0.156
GCAGGGTA | -0.0894
TGGACACA | -0.0471
AATCCCTG | -0.18
ACTGGAAC | -0.00282
TTTATAAA | 0.16
ACTACACT | -0.219
ACGATAAC | 0.0651
ATCGCTCG | 0.205
AGTCGATG | -0.127
AAGCCAGT | -0.328

Sequence | PBM E-score
CTCAACCA | -0.154
CGACCCCA | 0.105
ACGGTTGG | -0.0421
ACCAGTAC | -0.0787
ACTAGGCT | -0.132
CACGCACC | -0.14
AGGCTAGA | -0.121
CCTTCTAG | -0.341
CTGTCTGC | -0.296
AATCATCC | 0.0211
AAACCGTA | 0.146
ATTCGCTA | -0.0993
AGGGCGCC | 0.106
GATATAGA | 0.0385
CATACGGC | 0.162
CTCATCAA | 0.0456
CGATAGCA | 0.112
ATGATCTA | -0.0838
TCCGTAGA | 0.297
TAAACCTA | -0.00275
CAGGCTTA | -0.0377
CTGGGTAC | -0.0802
AGTGGAAC | 0.0266
AGGTCACT | -0.221
ACGGTAGG | -0.0364

Sequence | PBM E-score
AGCGAACC | -0.0488
GCATGGCC | 0.0578
TCGTACGA | -0.105
GCCTTCCC | -0.0724
ATATAATC | 0.0272
AACCACGG | 0.105
ATTGGGCC | 0.0392
CCCAGCGG | 0.0427
CGGCATTA | 0.459
AGGAGGAC | -0.265
CCGCTCTA | 0.0538
CAATGGGG | -0.0711
CTGGGGGA | -0.226
CATAGTTC | 0.0169
CGAACACC | 0.0437
AATACGAG | -0.0536
AATGAACG | -0.204
AACCTACC | -0.0334
AACCATCC | 0.0689
AACAAAAT | -0.148
CAGGCTCC | 0.0525
CAGCCCAC | -0.189
ACTCTCGA | -0.184
AGCTAGGG | -0.106
ACAGTCCG | 0.258

Sequence | PBM E-score
ACCCTATG | -0.304
CGTATTAA | 0.0796
GCGGGGCC | 0.234
ACTAAGTC | -0.0961
TATAAAGA | -0.202
CCCGGCCC | 0.341
ACTATCGC | 0.104
CTTCTTAC | 0.0532
AAAGCTGT | -0.0581
GCCAATAA | -0.0084
CCTACGAG | -0.221
CCTAGAGA | -0.296
GCAGCTGC | 0.0228
TCGGCGCA | 0.27
AAAAACCC | 0.134
CTAGTGTA | -0.271
GATGCTCC | 0.206
CTATCAAA | -0.0068
CTCCGGGC | 0.341
CCCCGAGC | 0.351
TCAAGCCA | -0.0578
AGATGCTG | -0.205
GCGTGCCC | -0.0226
GAAAGGTA | -0.0295
AACATAAC | -0.034

Sequence | PBM E-score
CCGATTAG | 0.312
ATCCTGGG | -0.0727
CCATTTAG | -0.115
CACCTGGA | -0.258
TCTTGTAA | -0.0768
ACGGAAGG | 0.143
CTCGGTTA | 0.296
CTGTCCAA | -0.122
GGTCTGAC | 0.0513
CTTACTTC | 0.0715
CGAAAGTA | 0.0968
GGGCGCCA | 0.0886
CCACCCTA | -0.165
CCATTTCG | 0.11
GACTCGGA | 0.405
CTTTATAA | -0.215
ACTCGACA | -0.0599
ACTGGTAT | -0.0718
ACCGGGTC | 0.194
CTACGATC | -0.131
ACATTTAC | -0.173
CGGCGTAG | 0.0917
ACAATTGC | -0.0911
ATTCAGAC | -0.301
CCTAGTGA | -0.0778

Sequence | PBM E-score
CTAAAGGC | -0.143
CGTTTTTA | 0.0673
GGGCATAC | 0.156
CTCTGTCA | -0.296
GGTCTGCA | 0.0455
ACGCTCAT | -0.174
CGCTACGC | 0.154
AAAGGGAC | -0.168
ATTTCGGG | 0.29
CTCAAAAA | -0.158
AAACTAGG | -0.0582
CGTTCCAA | -0.0915
TAAGAAAA | -0.121
GTTGAACA | -0.155
GGTCCCCA | 0.0281
AGCCCTCA | -0.0827
GCCCGTAC | 0.0412
CCACAAAC | 0.0992
GTTTCATA | -0.108
ATTTCAGA | -0.121
CGCAACGA | 0.0199
AACTTCGG | 0.33
CAGATGCG | -0.162
TTCGGCAA | 0.185
ACCCCAGA | -0.213

Sequence | PBM E-score
AGCTGCCG | 0.172
GTCTACAA | -0.272
AGACCCAG | -0.339
ACCCGCCA | -0.0193
CTCGGACC | 0.375
GAATAATC | -0.0357
CAGATTAA | 0.146
GTCTGAAA | -0.0828
AACCGTAA | 0.159
CTAAGCGC | 0.0967
CAGCCTGC | -0.27
ACAAGCAA | -0.243
AAGGACGG | 0.0575
CCGTTCCG | 0.289
CGATGTAC | 0.0471
AATTCGTG | -0.0422
ATGCACAC | -0.0597
CATGATAG | -0.236
CAAAGCGA | 0.0517
CCTTGCTC | 0.00079
CGAACTTC | -0.059
GGCGCCTA | -0.121
AATACGGA | 0.294
CTTTGTTC | 0.11
AACGAGAG | -0.0289

Sequence | PBM E-score
TAGAGCTA | -0.229
CCCACGGA | 0.278
AGATTAAT | 0.0369
AAGGGTGT | 0.141
GGTCTCAC | -0.00887
ATGGTACG | -0.0245
GGCGTCCC | 0.00328
ATAATCTA | 0.0153
CGCCCTAA | -0.0687
CAGCCAGC | -0.219
ATAAGACC | 0.163
AACCTTGA | -0.0892
CGCCGGAA | 0.357
ACCGGCCT | 0.181
CTGTCCCC | -0.0758
GACACCAA | -0.00035
GACTGTCA | -0.107
CAAGGGAA | -0.172
CTTTAATC | 0.117
CAGAAGTC | -0.105
TATAGCAA | -0.0406
ACCGCGCC | 0.0941
AGTGAACC | -0.069
CACGAAAG | -0.147
GTCTTAAA | -0.0176

Sequence | PBM E-score
CATACGTC | 0.145
TCCCCCAA | -0.288
TGGCGGAA | 0.113
ACCGGAAA | 0.417
GGATTTAA | 0.444
CTGTGATC | -0.0322
AAATCTAT | 0.0492
GCCCATAC | -0.194
GATTATAC | 0.152
AAGCCAGG | -0.0951
ATCCCCGC | 0.371
CTACTCGC | -0.0426
CCGACCAG | 0.168
TGCTGCAA | -0.142
ATAGGTGA | -0.0836
CCGGAACC | 0.35
CAGAGCAA | -0.155
CATGACTC | -0.291
CTGGTGCA | -0.255
